The supplement of paper PMC12217912
This is one part of the list. Sequences were assembled here from the parent chain. Values near 0.05 are background.

B1: TEV protease; numbered along this chain (parent)
chain: MGESLFKGPRDYNPISSSICHLTNESDGHTTSLYGIGFGPFIITNKHLFRRNNGTLVVQSLHGVFKVKDTTTLQQHLVDGRDMIIIRMPKDFPPFPQKLKFREPQREERICLVTTNFQTKSMSSMVSDTSCTFPSGDGIFWKHWIQTKDGQCGSPLVSTRDGFIVGIHSASNFTNTNNYFTSVPKNFMELLTNQEAQQWVSGWRLNADSVLWGGHKVFMVKPEEPFQPVKEATQL

Variants of: B1
Test: raw area under fraction-flipped curve 0-4 h after induction (AUC4h, not background-subtracted), DNA-recorder readout of cleavage of the substrate (dimensionless); higher = more cleavage of the substrate by the protease variant
Conditions: temperature: 34 °C; time window: 0-4 h after rhamnose induction
Protocol: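 In vivo DNA recorder in E. coli TOP10(DE3) ΔrhaA at 34 °C. Each TEVp single-site mutant (parent TEVp 0) is paired with a single-site variant of the 7-mer TEVs (canonical ENLYFQ|S). The substrate sits between flexible linkers in a Bxb1-sfGFP-TEVs-SsrA fusion, so cleavage stabilises Bxb1 and speeds flipping of a recombination array, read by NGS. The value is the raw area under the fraction-flipped curve over 0-4 h after rhamnose induction (AUC4h), with ≥20 reads per time point. It is not background-subtracted; inactive controls average about 0.047.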
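Note: Bxb1 expression induced with 0.2% (w/v) L-rhamnose at OD600 near 0.5, cultures sampled hourly, flipped fraction per protease–substrate barcode pair counted by paired-end Illumina sequencing.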

Variant | area with substrate CNLYFQS | area with substrate DNLYFQS | area with substrate HNLYFQS | area with substrate INLYFQS | area with substrate LNLYFQS | area with substrate PNLYFQS | area with substrate TNLYFQS | area with substrate FNLYFQS | area with substrate GNLYFQS | area with substrate MNLYFQS | area with substrate NNLYFQS | area with substrate QNLYFQS | area with substrate SNLYFQS | area with substrate WNLYFQS | area with substrate YNLYFQS | area with substrate KNLYFQS | area with substrate RNLYFQS | area with substrate VNLYFQS
S32M | 0.0552 | 0.0608 | 0.0608 | 0.0964 | 0.0894 | 0.0811 | 0.0648 |  |  |  |  |  |  |  |  |  |  | 
S32Q | 0.0756 | 0.0878 | 0.0566 |  | 0.0707 | 0.0639 | 0.056 | 0.046 | 0.0824 | 0.0156 | 0.0634 | 0.0723 | 0.0721 | 0.0582 | 0.0704 |  |  | 
S32R | 0.0534 |  | 0.0655 | 0.0733 | 0.0615 | 0.0684 | 0.0543 | 0.0548 | 0.0664 | 0.0722 | 0.0611 | 0.0725 | 0.0649 | 0.0393 | 0.0538 | 0.0714 | 0.0643 | 
P104L | 0.0483 | 0.0514 | 0.047 | 0.0526 | 0.0633 | 0.0524 | 0.0512 | 0.0506 |  | 0.054 | 0.0537 | 0.0433 | 0.0541 | 0.0588 | 0.0528 | 0.0442 | 0.0596 | 0.0605
T72N | 0.0702 |  | 0.08 | 0.0614 | 0.081 |  | 0.0537 | 0.0572 | 0.0879 | 0.0724 | 0.0732 | 0.0547 | 0.0559 | 0.0597 | 0.0548 | 0.0698 | 0.0659 | 
T72S | 0.0826 | 0.0846 | 0.0576 |  |  |  | 0.0486 |  | 0.0614 |  | 0.0833 | 0.0797 | 0.0718 |  | 0.0572 | 0.107 |  | 
M88D | 0.0641 |  | 0.0532 |  |  |  | 0.0254 |  |  |  |  |  | 0.0198 | 0.0379 | 0.0527 |  |  | 
M88Q | 0.11 |  |  |  | 0.0616 |  |  | 0.108 |  | 0.0739 |  |  |  | 0.0516 |  | 0.0653 |  | 
P40S | 0.0765 | 0.0876 | 0.0725 | 0.0663 | 0.0286 | 0.0673 | 0.0619 | 0.0653 | 0.047 |  | 0.0681 |  | 0.0383 | 0.0668 | 0.0647 | 0.0652 | 0.0545 | 0.0707
P40D | 0.0603 |  | 0.0898 |  |  | 0.0719 | 0.0449 |  | 0.0675 | 0.0846 |  |  |  |  | 0.0657 |  |  | 
P40N | 0.0488 | 0.075 |  |  |  | 0.0676 | 0.0744 |  | 0.0614 | 0.0667 |  |  |  |  |  | 0.0677 |  | 
P40I | 0.0828 |  | 0.065 | 0.0642 | 0.063 | 0.054 | 0.0577 |  |  | 0.0599 | 0.0568 |  | 0.0697 | 0.068 | 0.0633 | 0.0572 |  | 
P40L | 0.0584 |  | 0.058 |  | 0.0736 |  | 0.0672 | 0.046 | 0.0562 | 0.0662 |  |  | 0.0661 | 0.0623 | 0.0688 | 0.0613 |  | 0.0644
P40H | 0.0833 |  | 0.0679 | 0.059 | 0.0596 | 0.068 | 0.0514 |  |  | 0.0652 | 0.0682 |  |  | 0.0627 | 0.0579 | 0.0681 | 0.0712 | 
L48Q | 0.0571 |  | 0.0823 | 0.051 | 0.0551 | 0.0546 | 0.0487 |  |  | 0.0724 |  |  | 0.0587 | 0.0547 |  | 0.0634 | 0.0408 | 0.11
L48A | 0.0708 | 0.0623 | 0.0436 |  | 0.0433 | 0.0693 | 0.0576 | 0.0625 |  | 0.0631 | 0.0185 |  | 0.063 | 0.0591 | 0.061 | 0.0654 |  | 

Variant | area with substrate CNLYFQS | area with substrate DNLYFQS | area with substrate HNLYFQS | area with substrate INLYFQS | area with substrate LNLYFQS | area with substrate PNLYFQS | area with substrate TNLYFQS | area with substrate FNLYFQS | area with substrate GNLYFQS | area with substrate MNLYFQS | area with substrate NNLYFQS | area with substrate QNLYFQS | area with substrate SNLYFQS | area with substrate WNLYFQS | area with substrate YNLYFQS | area with substrate KNLYFQS | area with substrate RNLYFQS | area with substrate VNLYFQS
L48C | 0.0649 | 0.0774 | 0.0549 | 0.0499 | 0.0631 |  | 0.0541 |  |  | 0.0587 |  |  |  | 0.0654 | 0.042 | 0.0493 | 0.0666 | 0.0723
L48I | 0.065 | 0.0561 | 0.0584 |  | 0.0527 |  | 0.0318 | 0.0526 | 0.0486 | 0.0693 |  |  |  | 0.0623 | 0.0317 | 0.0486 |  | 
L48E | 0.0613 | 0.044 | 0.0545 |  | 0.0632 | 0.0423 | 0.0627 | 0.0594 | 0.0745 | 0.0594 |  | 0.0525 | 0.0543 | 0.0453 | 0.0621 | 0.0634 |  | 0.0447
L56Q | 0.0332 |  | 0.0399 |  |  | 0.0501 | 0.0203 | 0.0412 | 0.0547 |  |  |  |  | 0.0328 |  |  |  | 
L56M | 0.0683 |  | 0.0722 | 0.0708 | 0.067 |  | 0.0611 |  | 0.0638 | 0.0534 |  |  |  | 0.0797 |  | 0.0361 |  | 0.0697
L56Y | 0.0489 | 0.0679 | 0.0496 | 0.0568 |  | 0.0543 |  |  | 0.0697 |  | 0.0471 | 0.0416 |  | 0.0441 | 0.0536 | 0.0656 |  | 0.0693
L56C | 0.0459 | 0.0675 | 0.056 |  | 0.0568 | 0.0573 | 0.0512 | 0.0465 | 0.0539 | 0.0629 |  |  |  | 0.0526 |  | 0.0605 |  | 
L56T | 0.0458 | 0.0705 | 0.0592 | 0.0587 | 0.0618 | 0.0611 | 0.071 |  | 0.0613 |  |  | 0.0524 | 0.0543 | 0.0513 | 0.0584 |  |  | 0.0124
P96F | 0.0681 |  |  |  | 0.0642 | 0.0614 | 0.0668 |  | 0.0698 | 0.0578 |  |  | 0.0623 | 0.0582 | 0.0446 | 0.0593 |  | 
P96V | 0.0653 | 0.0666 |  | 0.0616 | 0.047 | 0.0614 | 0.0571 |  |  |  | 0.052 |  | 0.0716 | 0.0602 | 0.0585 |  |  | 0.0585
V64R | 0.0428 | 0.0798 | 0.0566 |  |  | 0.063 | 0.0619 |  |  |  | 0.0602 | 0.0446 |  |  |  |  |  | 
V64Q | 0.0829 | 0.0859 |  | 0.0592 | 0.0581 | 0.0679 | 0.0651 |  |  | 0.0774 | 0.0672 | 0.0479 | 0.0769 | 0.0703 | 0.0523 |  |  | 0.0544
V64P | 0.0681 | 0.0514 | 0.0587 |  | 0.0622 | 0.06 | 0.0677 | 0.059 | 0.0782 |  | 0.0609 | 0.0739 | 0.0573 | 0.0661 | 0.0345 |  |  | 
G80P | 0.0547 |  | 0.0621 |  | 0.0503 | 0.0541 |  |  |  |  |  | 0.0736 |  | 0.0589 | 0.022 |  | 0.0366 | 0.0523
G80K | 0.0668 | 0.0418 | 0.0603 | 0.0681 | 0.0615 | 0.0654 | 0.0547 | 0.059 | 0.0652 | 0.0613 |  | 0.053 | 0.0621 | 0.076 | 0.0483 | 0.0766 |  | 
